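Values below derive from 48-hour exposures of cells grown in 96-well plates, with endpoints linearly interpolated between the two concentrations bracketing the appropriate inhibition level. GI50: concentration for 50% inhibition of growth. Definition used: TGI = concentration required for complete inhibition of growth.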 Activity calls are given as the source filed them. Cut-off read from the data, not from the text of the source: active = GI50 below about 0.43 µM; inactive = the rest. Where only a bound is given, the exact number is not on record here.

The test system of the experiment is NCI-H322M lung. Briefly: NCI tumour cell line growth inhibition, 48 h.
`COc1ccc(NC(=S)N/N=C/c2c(C)n(C)n(-c3ccccc3)c2=O)cc1` displayed a TGI greater than 100 µM. The same measure, in the same setting: in the case of `Cn1c2ccccc2c2ccc3c(c21)C(=O)C=CC3=O` it was 53.2 µM. Turning to `COc1cc(NC(=O)c2ccc(C(F)(F)F)nc2Nc2cc(Cl)ccc2C)cc(OC)c1OC`, the GI50 is 14.1 µM and the TGI was 76.4 µM. `Cc1nc2ccccc2c(=O)n1NC(=S)Nc1ccccc1` yielded a TGI greater than 100 µM. On to `O=C(NC1CCC(Br)CC1)C1CCCC(S(=O)(=O)NC2CCCCC2)C1` (stereo not given), for which the GI50 was 15.8 µM and the TGI amounted to 49.4 µM. The matching figures for `Oc1ccc(CCl)c2cccnc12`: 20 µM and greater than 100 µM. Take `O=c1cc(-c2ccc(O)c(O)c2-c2c(O)cc(O)c3c(=O)cc(-c4ccc(O)c(O)c4-c4c(O)cc(O)c5c(=O)cc(-c6ccc(O)c(O)c6)oc45)oc23)oc2cc(O)cc(O)c12`: the result was inactive. Take `COc1ccc2c(c1OC)CO[C@@H]2[C@H]1c2c(c(Br)c3c(c2OC)OCO3)CCN1C`: the GI50 is 9.48 µM and the TGI amounted to 55 µM.

`COc1cc2c(c(OC)c1OC)-c1ccc(SC)c(=O)cc1[C@@H](OC(=O)c1ccncc1)CC2` gave a TGI greater than 100 µM.

For the compound `ClC1=C(Cl)C(Cl)=C(Cl)C1=Cc1ccccc1`, the GI50 was 1.64 µM and the TGI stood at 3.57 µM. On to `C=CCOC(C)n1c(C)c(Br)c(=O)[nH]c1=O` (stereo not given), for which the TGI is greater than 100 µM.

As to `Clc1ccc2oc(CCC3CCCCC3)nc2c1`, the TGI is greater than 100 µM.

Take `O=S(=O)(O)c1ccc(N=Nc2ccc(N=Nc3c(O)c(S(=O)(=O)O)cc4cc(S(=O)(=O)O)ccc34)cc2)cc1`: the TGI is greater than 100 µM. Still for that read-out and setting: the same measure for `O=S(=O)(c1ccccc1)C1CN2OC1(S(=O)(=O)c1ccccc1)CC21CCCCC1` (stereo not given): greater than 100 µM. On to `O=c1[nH]c2ccc(N=Cc3c(O)[nH]c4ccccc34)cc2[nH]1`, for which the GI50 was greater than 25 µM and the TGI was greater than 25 µM. `C/C(CC(=O)Nc1ccc(C)c(C)c1)=N\NC(N)=S` came in with a TGI greater than 100 µM. With `N.N.NCCCCCCN.O=C([O-])CCl.O=C([O-])CCl.O=C([O-])CCl.O=C([O-])CCl.[Pt+4].[Pt+4]`, the GI50 is greater than 50 µM and the TGI is greater than 50 µM. As for `c1cc2sc1CSCCSCCSC2`, the TGI is greater than 100 µM. Turning to `O=C1Nc2ccccc2C1(c1c[nH]c2ccccc12)c1c[nH]c2ccccc12`, the GI50 was 2.09 µM and the TGI was found to be 5.16 µM. In the case of `COc1cc(OC)cc(C2C(C#N)=C(N)Oc3c2ccc2ccc(O)cc32)c1` (stereo not given), the GI50 was less than 0.01 µM and the TGI stood at 13.3 µM.

For `O=[N+]([O-])c1ccc(N=Nc2c(O)[nH]c3ccc(Br)cc23)cc1`, the TGI came out at 37.1 µM. On the same count and under the same terms, the same measure for `O=c1oc2ccc(Cl)cc2cc1C1=CSC2=NCCN12`: 43 µM; for `O=C1CCC(C(=O)O)C2=C1CCCC2` (stereo not given): greater than 100 µM; for `CCCC(=O)c1ccc2c(ccc(=O)n2C)c1`: greater than 100 µM. For `CCNC(=S)NNC(=O)c1csc(NC(=S)NC2CCCCC2)n1`, the TGI was 47.5 µM.

For `CSc1nc(SC)c2cnn(CC3CO3)c2n1` (stereo not given), the TGI was greater than 83.4 µM.

Regarding `COc1cc2c(cc1OCCCNC(=O)/C=C1/C[C@H]3C=Nc4cc(OCc5ccccc5)c(OC)cc4C(=O)N3C1)NC(=O)[C@@H]1CCCN1C2=O`, the GI50 was greater than 100 µM and the TGI was greater than 100 µM. The compound `O=[N+]([O-])c1nccn1COCCI` had a TGI greater than 100 µM. In turn, `COC(=O)C(=O)C(C(=O)OC)C(=O)C(=O)Nc1ccccc1C(N)=O` (stereo not given) registered a TGI greater than 100 µM. In the case of `CCOC(=O)C1(c2ccccc2)CCCNCC1` (stereo not given), the TGI was greater than 100 µM.
